# Laboratory results taken from PubChem BioAssay AID624274 (Broad Institute, 2012).
# For part of its entries the source gives two or more results. Only these are listed. An entry can have further records. The records of an entry are repeated measurements in other runs, samples, wells, individuals or studies. Records carry a tag for their origin. The letters are not those of the source and start again with each entry.
# Biological target: Protein disulfide-isomerase (Homo sapiens) (UniProt P07237)
# Experiment: inhibition of PDI-mediated insulin reduction – biochemical, turbidity, absorbance, cherry-picked samples, set 2, dose response (AID 624274)
# Conditions: absorbance 650 nm
# Chain of UniProt P07237 (P07237 whole entry, looked up): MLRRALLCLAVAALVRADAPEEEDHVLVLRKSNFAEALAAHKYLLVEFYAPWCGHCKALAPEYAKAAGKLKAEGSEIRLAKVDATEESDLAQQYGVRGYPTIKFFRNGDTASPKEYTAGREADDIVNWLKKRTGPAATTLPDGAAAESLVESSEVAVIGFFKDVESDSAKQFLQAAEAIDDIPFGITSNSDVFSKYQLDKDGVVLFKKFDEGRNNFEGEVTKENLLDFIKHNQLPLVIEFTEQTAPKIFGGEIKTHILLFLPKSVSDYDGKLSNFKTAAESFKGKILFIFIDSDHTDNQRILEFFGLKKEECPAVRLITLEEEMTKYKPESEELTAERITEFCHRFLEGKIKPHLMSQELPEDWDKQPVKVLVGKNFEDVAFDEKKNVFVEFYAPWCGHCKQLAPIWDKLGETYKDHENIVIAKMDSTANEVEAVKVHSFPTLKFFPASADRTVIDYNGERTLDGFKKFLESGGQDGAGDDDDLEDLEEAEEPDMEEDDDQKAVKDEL
smiles,measurement,value
C[C@@H]1CN([C@H](C)CO)C(=O)c2cc(NC(=O)Cc3cn(C)c4ccccc34)ccc2O[C@H]1CN(C)S(=O)(=O)c1ccc(F)cc1,AC50,16.4 µM [sample A] and 1.26 µM [sample B]
